The full ranking holds about 33,000 sequences; the median of “E-score (-0.5 to 0.5)” is about -0.016, and the highest 2% start at about 0.32. Some of the results follow.

The source of these data is the supplement of paper PMC3334620.

This assay addresses T1, Stp1 (UniProt B3LFK1).
T1 sequence: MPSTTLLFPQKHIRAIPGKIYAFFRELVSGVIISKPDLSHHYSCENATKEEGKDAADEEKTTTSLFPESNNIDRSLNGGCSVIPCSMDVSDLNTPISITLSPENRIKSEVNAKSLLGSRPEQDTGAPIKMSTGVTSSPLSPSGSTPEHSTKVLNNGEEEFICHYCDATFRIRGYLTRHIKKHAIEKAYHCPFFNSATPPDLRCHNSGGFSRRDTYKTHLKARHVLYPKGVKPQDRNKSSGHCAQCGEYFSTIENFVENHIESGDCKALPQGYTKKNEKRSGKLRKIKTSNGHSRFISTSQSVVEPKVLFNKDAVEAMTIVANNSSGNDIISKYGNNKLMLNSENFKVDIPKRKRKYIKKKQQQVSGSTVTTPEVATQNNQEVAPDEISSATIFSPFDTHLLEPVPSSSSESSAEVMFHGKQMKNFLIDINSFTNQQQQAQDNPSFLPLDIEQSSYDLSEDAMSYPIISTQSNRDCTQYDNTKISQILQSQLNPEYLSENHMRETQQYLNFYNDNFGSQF
The experiment in a line: PBM E-score (8-mer binding enrichment) (E-score (-0.5 to 0.5)); higher = stronger / more preferred TF binding; most listed sequences are background and not binding sites. Conditions: protein concentration: 200 nM; construct: GST-full length. A digest of the protocol: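 Each ungapped eight-base word and its reverse complement, pooled, received an E-score from the Universal PBM Analysis Suite. Underlying scans, normalised with masliner, recorded fluorescent anti-GST bound to GST-tagged yeast transcription factors. These were applied at about 100-200 nM to universal all-10-mer Agilent arrays double-stranded by primer extension.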
For ACTGACCA, the “PBM E-score” value was -0.304.
As for AAACCAAC, the “PBM E-score” value was determined as 0.0618.
Under ATTATAGG stands -0.0155; under ATCGTATA, 0.177; under AATTACAC, -0.00481.
In the case of CAAGTGCA, the “PBM E-score” value is -0.129.
Consider GCAGATCA, for which the “PBM E-score” value was -0.293.
On to CCTCTACG, for which the “PBM E-score” value was -0.0807.
ATGTAGGC: the “PBM E-score” value is -0.0572.
Take ATACATTG: the “PBM E-score” value was determined as 0.0644.
On to TCGCACAA, for which the “PBM E-score” value was 0.0629.
Under AGGCGGAA stands 0.0802.
Under GGGCGGTA stands -0.128; under AGGCAACA, 0.143.
With AACGTGCG the figure was 0.0982.
On to ATAAGTGG, for which the “PBM E-score” value stood at 0.137.
Under CGCACCAC stands 0.063; under CTACTTCA, -0.0708.
For TCGCTGAA, the “PBM E-score” value amounted to 0.0632.
With CACCTTCG the figure was -0.0864; with GGGTATAC, -0.208; with GCGGACTA, -0.0967.
With CGAATTAG the figure was 0.0626; with ACTCAGCG, -0.167.
With GGGCAAGA, the “PBM E-score” value worked out at 0.0452.
Under AGCATGAA stands -0.118; under ATGACCTC, -0.209.
As for AATGGTCT, the “PBM E-score” value was -0.0756.
With CTCGCATC the figure was -0.0189.
Under ACTATGCG stands 0.133; under CACGGCTC, 0.469.
For the sequence GCGTACAA, the “PBM E-score” value amounted to 0.167.
Under CCGTTTAC stands 0.235.
Under CATGTACA stands -0.041; under CTATGTTA, 0.153.
In the case of CTTCAGAC, the “PBM E-score” value was -0.00198.
Take GATTAGAA: the “PBM E-score” value was -0.0377.
As for AAGATTGT, the “PBM E-score” value stood at 0.0815.
With ATTACTCC the figure was 0.0765; with GTAGCCAC, -0.0824.
With GATGATGA the figure was -0.171; with CAACGTCC, -0.276.
Under AAGATTTG stands -0.0479; under CCGTGACG, 0.109; under AATTGGCG, 0.0797.
With AGGGGAAA, the “PBM E-score” value is -0.223.
As to AACTGCGC, the “PBM E-score” value is -0.0192.
With GTCAAATA the figure was 0.0762; with GCGGCTTA, 0.234; with CTTATATA, 0.26.
With CGCACTTC the figure was -0.0865.
With AAATTACA the figure was 0.0556; with CCTCGTTA, 0.0299; with CTATTTGC, -0.0276.
On to CAACTAGA, for which the “PBM E-score” value stood at 0.0664.
With AAGATATC the figure was 0.0695; with GAGTAGGA, -0.242; with CTCCAAAA, -0.0218.
Take CTTACCTA: the “PBM E-score” value was -0.166.
With GACTCGAC the figure was -0.0794; with CAAGCACC, -0.194.
With AGTGCGCC the figure was 0.297; with TCGATTAA, 0.191; with AACCCCTT, -0.257.
With CGGCTATA the figure was 0.246.
For CTTTCAGC, the “PBM E-score” value was 0.0149.
Under AGTTTCTA stands 0.0128; under GCCGAGAA, 0.173; under GGTCTAAC, -0.0214.
With CTAGCGCC, the “PBM E-score” value came out at 0.16.
Under CATGGAGG stands -0.166.
In the case of ACCACACG, the “PBM E-score” value is 0.0913.
For the sequence GCCTGGTA, the “PBM E-score” value is -0.227.
Under GTAGAGAC stands -0.243; under AACCAACT, -0.0274; under GCTGTTAC, 0.0627.
Under AAGTGTGC stands 0.122.
Under CACTACCA stands 0.0268; under CCTTTTGA, 0.112.
Take CAGCGTGG: the “PBM E-score” value was found to be 0.0374.
Turning to ACGCATCC, the “PBM E-score” value was -0.151.
With ACATAACC the figure was -0.0579; with ATTTGGTC, 0.135; with GCCAGTCA, -0.217.
On to ACTCAGTC, for which the “PBM E-score” value was -0.21.
Under CGATGACG stands -0.00902; under GCAAGAGC, 0.0505.
With CACATCCG the figure was 0.0228.
With GAATCCCC the figure was -0.312; with CGGTTAAG, -0.0804; with AAGGACCT, -0.0559.
As for AGTGAATC, the “PBM E-score” value is -0.132.
Regarding CCGATCTC, the “PBM E-score” value is -0.112.
Take CGGTACAG: the “PBM E-score” value is -0.0614.
With CTCTCGAC the figure was -0.159.
With GCGATTCA the figure was -0.0665.
On to AGCTGATC, for which the “PBM E-score” value amounted to 0.0485.
CAGTTACA: the “PBM E-score” value came to 0.149.
Under AAAACATG stands -0.00948.
With ACGCTCAG the figure was -0.162.
Under GCAGGGCA stands 0.23.
Regarding AGCATAAT, the “PBM E-score” value amounted to 0.119.
Under GCCCTCTA stands -0.0132; under ATGACTAG, -0.162.
With ATCCGGCA, the “PBM E-score” value was -0.0958.
With AGGAGCGA the figure was -0.105.
With ATTGGTCA the figure was 0.055; with AATTAGAC, 0.00502.
Turning to CACTGTGA, the “PBM E-score” value is 0.0499.
